# Measured values as given in PMC4336329 (PLoS ONE, 2015).
# Hit rate of the full screen: of about 310,000 compounds, about 2,200 (0.71%) showed an effect of 50% or more. The effect is printed as a negative number. The list shows a part of the results.
# Target: human ether-à-go-go-related gene (hERG) potassium channel (human, UniProt Q12809)
# Assay: primary screen, population patch clamp on CHO cells stably expressing hERG
# Chain of human ether-à-go-go-related gene (hERG) potassium channel (Q12809 whole entry, looked up): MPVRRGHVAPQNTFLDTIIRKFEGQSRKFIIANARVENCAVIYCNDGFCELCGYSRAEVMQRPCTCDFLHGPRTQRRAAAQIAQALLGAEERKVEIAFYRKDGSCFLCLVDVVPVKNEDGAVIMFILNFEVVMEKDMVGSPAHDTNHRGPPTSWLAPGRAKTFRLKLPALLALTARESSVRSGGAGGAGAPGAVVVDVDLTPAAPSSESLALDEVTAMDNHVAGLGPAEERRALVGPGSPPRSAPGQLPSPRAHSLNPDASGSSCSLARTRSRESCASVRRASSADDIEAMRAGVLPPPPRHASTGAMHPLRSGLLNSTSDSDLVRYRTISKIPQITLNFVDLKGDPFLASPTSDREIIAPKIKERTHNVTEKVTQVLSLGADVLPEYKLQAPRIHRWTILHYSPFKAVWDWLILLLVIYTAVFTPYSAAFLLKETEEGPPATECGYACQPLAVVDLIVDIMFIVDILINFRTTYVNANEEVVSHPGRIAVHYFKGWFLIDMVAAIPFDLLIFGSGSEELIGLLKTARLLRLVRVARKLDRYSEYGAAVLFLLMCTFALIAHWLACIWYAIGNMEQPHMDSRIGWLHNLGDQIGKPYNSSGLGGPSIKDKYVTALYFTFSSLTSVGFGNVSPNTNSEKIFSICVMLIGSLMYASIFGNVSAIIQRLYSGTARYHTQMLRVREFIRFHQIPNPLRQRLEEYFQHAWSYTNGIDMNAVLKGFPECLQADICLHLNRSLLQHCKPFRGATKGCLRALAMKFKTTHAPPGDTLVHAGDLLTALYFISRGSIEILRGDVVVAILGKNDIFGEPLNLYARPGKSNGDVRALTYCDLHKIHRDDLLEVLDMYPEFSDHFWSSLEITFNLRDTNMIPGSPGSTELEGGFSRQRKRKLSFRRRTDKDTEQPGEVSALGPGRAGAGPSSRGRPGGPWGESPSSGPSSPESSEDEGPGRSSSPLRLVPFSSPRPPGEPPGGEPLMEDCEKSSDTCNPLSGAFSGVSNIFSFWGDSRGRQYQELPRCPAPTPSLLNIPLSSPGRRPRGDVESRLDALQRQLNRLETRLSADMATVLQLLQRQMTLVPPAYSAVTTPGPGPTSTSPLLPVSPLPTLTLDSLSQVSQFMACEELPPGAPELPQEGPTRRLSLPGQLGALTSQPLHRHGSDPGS
row,SMILES,"hERG current change (%, negative = inhibition) at 1uM"
1,CCCc1cc(=O)[nH]c(SCC(=O)N2CCN(S(=O)(=O)c3ccccc3)CC2)n1,11.9%
2,O=C(CSc1nc2ccccc2c(=O)[nH]1)Nc1ccc(S(=O)(=O)N2CCCC2)cc1,7.16%
3,CCn1c(-c2ccco2)nc2ccccc21,4.95%
4,O=C(COC(=O)c1ccc(S(=O)(=O)NCc2ccco2)cc1)Nc1ncc(Cl)cc1Cl,11.8%
5,O=C(NCc1ccc(F)cc1)c1cc2ccccn2n1,11.3%
6,O=C(CC1C(=O)NCCN1CC1CCCCC1)NCc1ccc(Cl)cc1 (centres unmarked),6.4%
7,COCCn1nnnc1C(c1ccc(O)c(OC)c1)N1CCc2ccccc2C1.Cl (centres unmarked),15.8%
8,O=C(COC(=O)[C@@H]1CC(O)CN1S(=O)(=O)c1ccccc1[N+](=O)[O-])c1ccccc1 (some centres unmarked),3.42%
9,COC(=O)CNC(=O)C1CCN(C(=O)OCc2ccccc2)CC1,9.41%
10,COc1ccc(OC)c2c(N3CC(C)OC(C)C3)cc(C(F)(F)F)nc12 (centres unmarked),-1.92%
11,O=C(Nc1nccs1)c1cncc(Br)c1,-0.0574%
12,COc1cc2c(OC)cccc2cc1C(=O)O,10.3%
13,O=C(CC(c1ccc(F)cc1)c1ccco1)Nc1nccs1 (centres unmarked),12.5%
14,CCOC(=O)Cn1nc(C)c(NC(=O)COc2ccc(OC)cc2)c1C,4.48%
15,Cc1ccc(N(C(C)C(=O)Nc2c(C)n(C)n(-c3ccccc3)c2=O)S(C)(=O)=O)cc1C (centres unmarked),12.6%
16,c1ccc2c(c1)OCc1cn[nH]c1-2,13.6%
17,CC(=O)c1cccc(CN2CCN(CC=C(C)C)C(CCO)C2)c1 (centres unmarked),6.3%
18,O=C(O)C1C2CCC(O2)C1C(=O)Nc1ccc(Cl)cc1 (centres unmarked),11.3%
19,C=CCn1c(C)cc(C)c(C#N)c1=O,15.3%
20,Cc1ccc(C(=O)N/C(=C\c2sccc2C)C(=O)NCCCN2CCOCC2)cc1,9.15%
21,Cc1nn(CCCC(=O)NC(C)c2ccccc2)c(=O)c2nn(-c3ccccc3)c(C)c12 (centres unmarked),0.213%
22,COc1cccc(Nc2nc(-c3sc(NC(=O)c4ccco4)nc3C)cs2)c1,14.9%

row,SMILES,"hERG current change (%, negative = inhibition) at 1uM"
1,O=C(NCCOc1cccc2cccnc12)c1cccs1,-6.26%
2,CCOc1cc(/C=N/NC(=O)CN(CCc2ccccc2)S(=O)(=O)c2ccc(NC(C)=O)cc2)ccc1O,6.73%
3,O=C(COc1ccc(F)cc1Br)N1CCN(c2ncccn2)CC1,-1.5%
4,O=[N+]([O-])c1ccc(NCCCNS(=O)(=O)c2ccccc2)cc1,-14.8%
5,CC1CCCCN1CCNC(=O)c1cc2c(=O)n(C)c3ccccc3c2n1C (centres unmarked),3.94%
6,COc1ccc(C2CC(c3ccc(F)cc3)=NN2c2ccccc2)cc1OC (centres unmarked),10.8%
7,CCCN(C(=O)CSCc1ccc(Cl)cc1)c1c(N)n(Cc2ccccc2)c(=O)[nH]c1=O,14.4%
8,COc1ccc2cc(CCNC(=O)c3ccc(S(=O)(=O)N4CCOCC4)cc3)c(=O)[nH]c2c1,3.69%
9,Cc1cc(C)cc(NC(=O)C2CCCN2/C=C/C(=O)C(F)(F)F)c1 (centres unmarked),8.06%
10,COc1ccc(C(=O)COC(=O)CCc2ccccc2)cc1,13.6%
11,CCOC1(OCC)N=C(N)C2(C#N)C(c3cccc(C)c3)C12C#N (centres unmarked),8.98%
12,Cc1ccccc1CNS(=O)(=O)c1c(C(=O)N2CCCCC2)c(C)n(C)c1C,7.46%
13,COc1ccccc1N(CC(=O)NCCSCc1ccccc1Cl)S(C)(=O)=O,2.69%
14,COc1ccc(/C=C2\N=C(C)N(c3ccc(C(=O)O)cc3)C2=O)cc1OC,16.2%
15,O=C(O)C(Nc1nc(C(F)(F)F)nc2ccccc12)c1ccccc1 (centres unmarked),18.6%
16,COC(=O)C1=C(c2cc3ccccc3s2)C[C@@H]2CC[C@H]1N2C(=O)NCc1ccccc1,6.04%
17,O=C(O)CC(NC(=O)COc1ccc(Cl)cc1Cl)C(=O)O (centres unmarked),13.4%
18,Cc1[nH]n(-c2cccc([N+](=O)[O-])c2)c(=O)c1-c1ccccc1,11.1%
19,COc1ccc(-n2c(SCC(=O)Nc3ccc(Cl)cc3)nc(O)c(Cc3ccccc3)c2=O)cc1,6.51%
20,CCNC(=O)N1c2ccccc2Sc2ccccc21,15.2%
21,Clc1ccc(OCCSc2ncccn2)cc1,11.3%
22,Cc1nn(-c2ccccc2)c2c1C(c1ccc(F)cc1F)C(C#N)=C(N)O2 (centres unmarked),-8.22%
